The subject of the data set is ATP. Nature of the data set: switch fluorescence ratio, 500 uM ATP over buffer (Cy3 cluster intensity, sum of 5 cycles each) (fold (ratio)); higher = stronger signal-on switching upon ATP binding; sequences stand for … in TCGTCGGCAGCGTCAGATGTGTATAAGAGACAGTTTTTTTTTTTTTTTTTTTTTTTTT…TC. The settings on record: aptamer strand: ATP DNA aptamer (quencher-CACCTGGGGGAGTATTGCGGAGGAAGG + anchor), 100 nM annealed; ATP concentration: 500 uM; one replicate. The method, boiled down:
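Per cluster, summed Cy3 intensity from the target cycles was divided by that from the buffer cycles to give the fluorescence ratio, then averaged per switch-domain sequence. Clusters outside 100-1000 RFU were excluded. The Cy3-labelled switching-strand clusters, on a modified Illumina MiSeq flow-cell, were annealed to 100 nM quencher-labelled ATP aptamer and imaged in selection buffer, then after 15 min with 500 uM ATP at 22 °C, for five cycles with NaOH stripping and re-annealing between them.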

Drawing on the supplement of paper PMC10126150, this text covers switch fluorescence ratio for 120 sequences.

Values marked as one replicate rest on one cluster of the flow cell; about a third of the high ones do not repeat.
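Also: ATP exposure 15 min at 22 °C before imaging.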

Turning to TAATGATAGC, the switch fluorescence ratio came out at 1.03.
TAGAATGTGC: the switch fluorescence ratio was found to be 0.982.
Consider GACAAGCGTC, for which the switch fluorescence ratio came to 1.02.
The figure for TCATTGGTTG is 0.993.
As for GCCAGCCCTG, the figure is 1.04.
As for GGGATGGAGG, the figure is 0.964.
With AATAGTTTGC, the switch fluorescence ratio was 0.98.
Take CTACGATTTT: the switch fluorescence ratio was 1.11.
For the sequence GATGCTTGAA, the switch fluorescence ratio came to 1.08.
For the sequence GATAAAAGTA, the switch fluorescence ratio came to 0.97.
As for GTGTAGCAAG, the switch fluorescence ratio is 1.09.
For the sequence GGACTATGAG, the switch fluorescence ratio came to 0.958.
For AAAGGC, the switch fluorescence ratio amounted to 1.15.
The figure for TGGAATTTGA is 0.996; for CAAGTTCGGA it is 1.01; for GATGTTGGCT it is 1.05.
Turning to TCATCAAAAG, the switch fluorescence ratio amounted to 1.05.
As for CGGTACACAG, the switch fluorescence ratio turned out to be 0.991.
The figure for TCATAAACGG is 1.
With TGACAGGTCA, the switch fluorescence ratio was 1.01.
On to CAGACGACTA, for which the switch fluorescence ratio turned out to be 1.19.
On to CATTTTCTTT, for which the switch fluorescence ratio was 0.981.
For GAGTCTATGA, the switch fluorescence ratio was 1.01.
For CGGTAATTTA, the switch fluorescence ratio came out at 1.01.
Take ACAACGACCG: the switch fluorescence ratio was determined as 1.1.
In the case of TGTGCACTTA, the switch fluorescence ratio was 1.
As for CCAACCGGCT, the figure is 1.02.
Regarding TTCTGTAAAG, the switch fluorescence ratio came out at 0.994.
Consider AGTTGTACGG, for which the switch fluorescence ratio is 0.989.
For CTAAGTATGT, the switch fluorescence ratio came out at 1.
As for TTCAGAATCG, the figure is 1.04.
In the case of CTTCTAATT, the switch fluorescence ratio was 0.983.
The figure for TTGTAGTGCG is 0.994; for ATGTTTTGGT it is 0.975.
As for AAAGTTGTTC, the switch fluorescence ratio was found to be 1.05.
Take GCTGCGTGCT: the switch fluorescence ratio was determined as 0.978.
The figure for GGGGAAAGTG is 1.04.
The figure for CTGACTTGTC is 1; for CTGTGTTTCT it is 0.992; for ACCAATAACC it is 1.06.
As for ACTCGGATTC, the switch fluorescence ratio worked out at 1.05.
Consider AAGAACGGAG, for which the switch fluorescence ratio came out at 1.03.
The figure for ATCGGCAAGG is 1.17.
The figure for GCGGCGGGTA is 1.05; for ATGCTTCCAA it is 1.02; for CAGTCTGTG it is 0.926.
With TCCCAATATT, the switch fluorescence ratio worked out at 1.45.
GGTTAATGGT: the switch fluorescence ratio came to 0.997.
Take TTGTTTAGAC: the switch fluorescence ratio was found to be 1.02.
In the case of GGCCGATGGA, the switch fluorescence ratio amounted to 0.996.
Take GGCTCTCCTA: the switch fluorescence ratio turned out to be 0.991.
As for TTATGACATG, the switch fluorescence ratio was found to be 1.02.
In the case of ATACAACCGG, the switch fluorescence ratio was determined as 1.03.
With AGGGGATATA, the switch fluorescence ratio was determined as 0.983.
Take AGTTGTTGTG: the switch fluorescence ratio worked out at 0.958.
Regarding CGAGCATGAT, the switch fluorescence ratio worked out at 1.12.
As for GACCCGCCTG, the figure is 1.01; as for CCAGAGGTTA, 1.06; as for GATGAGTATG, 0.976.
The figure for ATGGGAAATG is 1.03; for GTGTTGGCGT it is 1.04; for GCTTAAGCAG it is 0.99.
As for CTGGATACAG, the switch fluorescence ratio worked out at 1.01.
As for CAGACAAT, the switch fluorescence ratio was determined as 2.17.
As for ATGCACCGGC, the figure is 1.11; as for ACGTTTGTAC, 1.21; as for GCAGTAGGTT, 0.982.
For AACTTCCACG, the switch fluorescence ratio was determined as 1.05.
In the case of CAAGGGGCTA, the switch fluorescence ratio worked out at 1.19.
As for GCGTTTAAAA, the figure is 1.01.
As for TACTGTATTC, the switch fluorescence ratio came to 1.17.
Turning to GTAAAGGGCT, the switch fluorescence ratio is 1.04.
In the case of GAGATTCTGC, the switch fluorescence ratio turned out to be 0.988.
As to CCGTATGGGC, the switch fluorescence ratio is 1.06.
Regarding TTTCGGCTGT, the switch fluorescence ratio was 1.03.
Take TATTACGAG: the switch fluorescence ratio is 1.04.
With AATTGTCGGG, the switch fluorescence ratio amounted to 0.981.
As for ACGGAGGCAC, the figure is 1.02.
CTGGTAGCAG: the switch fluorescence ratio was found to be 0.988.
With GGTCTGCTCC, the switch fluorescence ratio stood at 1.06.
Consider TGAGGGGGA, for which the switch fluorescence ratio was 0.994.
Regarding CTCTTTATGT, the switch fluorescence ratio stood at 1.02.
As for ATCTAAGGCC, the switch fluorescence ratio came out at 0.994.
For the sequence CGATAGGGTA, the switch fluorescence ratio came to 1.02.
As for CGTCTACTAT, the figure is 0.995; as for AACGCTTGGC, 1.04.
As for TATACGGGCG, the figure is 1.1; as for AGAGTCTATT, 1.03; as for CAGTCATGTT, 0.982.
On to ATGCTCAGGC, for which the switch fluorescence ratio worked out at 0.983.
Consider GCGCCGCCCA, for which the switch fluorescence ratio was found to be 1.01.
As to GCTACCCTGT, the switch fluorescence ratio is 1.06.
Take TGCTTACACT: the switch fluorescence ratio turned out to be 1.16.
On to ATGTTCGATA, for which the switch fluorescence ratio was 1.04.
Consider GGTCGCTCGG, for which the switch fluorescence ratio is 0.949.
Regarding CAATTCAGCA, the switch fluorescence ratio is 1.03.
CCTGGTGTAA: the switch fluorescence ratio was 1.08.
CGGTCGTCTT: the switch fluorescence ratio came out at 1.01.
Regarding GTATATTTGT, the switch fluorescence ratio worked out at 0.956.
TTTGATATCA: the switch fluorescence ratio was 1.03.
Consider AATAGGTGTA, for which the switch fluorescence ratio came out at 1.07.
In the case of AGTACGTGGG, the switch fluorescence ratio came to 0.978.
With CGCGGCGTAC, the switch fluorescence ratio is 2.06.
In the case of CCACACTAAG, the switch fluorescence ratio was 1.08.
Take ATCAACTACC: the switch fluorescence ratio came out at 1.18.
Take GCATGCGATT: the switch fluorescence ratio was 1.
Turning to TTTAAAAAGA, the switch fluorescence ratio is 1.02.
For ATGCTACAGT, the switch fluorescence ratio worked out at 1.02.
For the sequence GACTTCCTTT, the switch fluorescence ratio turned out to be 1.09.
For TTATGTTATT, the switch fluorescence ratio worked out at 1.02.
In the case of GGGTAATGCT, the switch fluorescence ratio was 0.946.
Take TGCGTTTACA: the switch fluorescence ratio amounted to 0.98.
Turning to GATATTGATA, the switch fluorescence ratio was found to be 1.
GGTATCAGAA: the switch fluorescence ratio amounted to 1.01.
As for TTAGAGAACA, the figure is 0.999; as for ATCTCCATTC, 1.02; as for CTGTCGATCG, 1.03.
For the sequence GTTTCAGCAG, the switch fluorescence ratio worked out at 1.02.
Take GAAAGAGTA: the switch fluorescence ratio stood at 0.998.
As for TCTGTATGGT, the figure is 0.983.
